Results taken from PubChem BioAssay AID652104 (National Center for Advancing Translational Sciences (NCATS), 2013).
About 7,200 (1.8%) of roughly 410,000 compounds were called active. This list was built around the results that the source calls inconclusive (neither active nor inactive); the mix of calls is not that of the screen. Calls come from the whole dose curve; as a rule, active = well fitted activation curve with a large enough effect; inconclusive = small, poorly fitted or top-dose-only effect, or another doubt; inactive = no such curve, though single readings can be large or run the other way. Where the call is inconclusive, the potency comes from a doubtful curve fit.

Assay: qHTS of TDP-43 Inhibitors; note: nearly all actives have a fitted effect of over 50% in size; for growth rescue (activation): % of control where 0% means no effect
Details: TDP-43 expressing yeast growth rescue, BacTiter-Glo, 24 h; growth rescue (activation): at 46.1 µM (top of the series) unless noted
Method in brief: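 Yeast expressing TDP-43 (pregrown in raffinose, seeded at OD600=0.02 in galactose medium) exposed to compounds 24 hr at 30 deg C. Growth read by BacTiter-Glo luminescence; rescue of toxicity appears as increased signal.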
Potency is the fitted concentration of half-maximal effect; tags give direction and shape of the fitted curve.

Growth rescue (activation), inconclusive:
O=C(/C=C/c1ccccc1[N+](=O)[O-])c1ccccc1Br -91.7% [activator]
O=C(NCc1ccco1)c1ccc(CNc2c(N3CCCCC3)c(=O)c2=O)cc1 33.5% [activator]

Potency, inactive:
COc1ccc(C2Nc3ccccc3-c3cc(C)nn32)cc1OC (centres undefined)
Oc1ccccc1-c1nc(/C=C/c2ccccc2Cl)nn1-c1ccccc1
CCOc1ccc(-c2nc(N)ncc2-c2ccc(OC)cc2)c(O)c1

Potency, active:
COc1ccc(CNC(=O)CCCN2C(=O)CSc3c2c(C)nn3-c2ccccc2)cc1 22.4 µM
COc1ccc(Oc2c(OC)cc([N+](=O)[O-])c3ncccc23)cc1 35.5 µM

Potency, inconclusive:
O=C(CN1C(=O)COc2ccc(Cl)cc21)Nc1ccc(F)cc1 31.6 µM [activator, partial curve]
CSC1=N/C(=C\c2ccccc2F)C(=O)S1 3.55 µM [activator, single point]
Cc1[nH][nH]c(=O)c1C(c1c(C)[nH][nH]c1=O)c1cn(Cc2ccc(F)cc2)c2ccccc12 35.5 µM [activator, partial curve]
COc1ccc(C(=O)[C@@H]2CC[C@](C)(C(=O)O)C2(C)C)cc1 35.5 µM [activator, single point]
C=CCOC(=O)C1=C(C)NC(SCC)=C(C#N)C1c1ccc(Cl)cc1 (centres undefined) 31.6 µM [activator, single point]
O=S(=O)(c1ccc(-c2csc(-c3cccnc3)n2)cc1)N1CCCCC1 7.08 µM [activator, partial curve]
O=C(Nc1ccc(Br)c2cccnc12)c1ccc(Cn2cc([N+](=O)[O-])cn2)o1 8.91 µM [activator, partial curve]
CCCCN(C)CCNC(=O)CCn1nc(-c2ccc(Cl)cc2)ccc1=O 35.5 µM [activator, partial curve, poor fit]
COc1cc(NC(=O)c2cccc3c2C(=O)N(C2CCCCC2)C3)cc(OC)c1OC 22.4 µM [activator, single point]
C=CCNCCCCOc1ccc(OCc2ccccc2)cc1 4.47 µM [activator, single point]
Cc1cccc(NC(=O)c2ccc(-n3cnc4cccnc43)cc2)c1C 35.5 µM [activator, single point]
C(=N\n1cnnc1)/c1ccc(-c2ccccc2)cc1 12.6 µM [activator, partial curve]
